# From PMC4336329 (PLoS ONE, 2015)
# In all, about 310,000 compounds went through this assay and about 2,200 (0.71%) showed an effect of 50% or more. Effects have a minus sign here. Some of the results follow.
# Target: human ether-à-go-go-related gene (hERG) potassium channel (human, UniProt Q12809)
# Test: primary screen, population patch clamp on CHO cells stably expressing hERG
# Chain of human ether-à-go-go-related gene (hERG) potassium channel (Q12809 whole entry, looked up): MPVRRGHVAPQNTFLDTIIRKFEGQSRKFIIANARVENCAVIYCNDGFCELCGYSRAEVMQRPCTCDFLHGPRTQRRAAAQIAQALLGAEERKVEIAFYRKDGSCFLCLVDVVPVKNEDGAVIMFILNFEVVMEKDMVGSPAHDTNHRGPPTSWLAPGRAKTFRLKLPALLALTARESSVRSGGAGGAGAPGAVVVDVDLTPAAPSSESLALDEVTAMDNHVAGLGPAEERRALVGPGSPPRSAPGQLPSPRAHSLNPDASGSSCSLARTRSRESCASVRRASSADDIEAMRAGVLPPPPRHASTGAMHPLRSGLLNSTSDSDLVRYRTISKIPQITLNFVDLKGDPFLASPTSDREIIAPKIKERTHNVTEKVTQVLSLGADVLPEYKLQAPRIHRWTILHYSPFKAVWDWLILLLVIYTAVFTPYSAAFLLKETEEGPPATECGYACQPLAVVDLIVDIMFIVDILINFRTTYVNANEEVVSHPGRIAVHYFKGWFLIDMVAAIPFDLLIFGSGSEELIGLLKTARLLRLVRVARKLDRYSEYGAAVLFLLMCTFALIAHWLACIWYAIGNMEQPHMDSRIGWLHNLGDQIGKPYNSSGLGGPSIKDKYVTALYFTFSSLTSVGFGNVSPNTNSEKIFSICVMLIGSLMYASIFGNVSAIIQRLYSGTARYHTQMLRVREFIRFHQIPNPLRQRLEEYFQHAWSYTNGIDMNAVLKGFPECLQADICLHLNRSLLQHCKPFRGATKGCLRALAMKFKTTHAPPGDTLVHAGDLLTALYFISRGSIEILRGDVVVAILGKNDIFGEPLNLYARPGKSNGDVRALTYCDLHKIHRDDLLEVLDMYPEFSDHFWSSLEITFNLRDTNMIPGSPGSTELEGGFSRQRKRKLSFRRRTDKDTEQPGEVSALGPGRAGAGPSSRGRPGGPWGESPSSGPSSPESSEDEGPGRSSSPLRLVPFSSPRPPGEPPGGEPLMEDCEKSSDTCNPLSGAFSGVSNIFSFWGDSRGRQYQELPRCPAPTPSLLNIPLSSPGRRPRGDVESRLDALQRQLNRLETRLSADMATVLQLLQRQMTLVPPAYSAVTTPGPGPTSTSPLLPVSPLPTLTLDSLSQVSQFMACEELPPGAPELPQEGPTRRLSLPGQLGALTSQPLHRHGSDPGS
row,Structure (SMILES),"hERG current change (%, negative = inhibition) at 1uM [%]"
1,CCOc1ccc2c(c1)-c1c(ssc1=S)C(C)(C)N2C,1.36
2,O=C(/C=N/O)Nc1ccccc1,-2.37
3,Cc1cccc(C)c1NC(=O)CNC(=O)Cc1ccc(Br)cc1,14
4,COc1cc2cc(CN(CCO)S(=O)(=O)c3ccccc3Cl)c(=O)[nH]c2cc1OC,4.93
5,COc1ccc(N2CC(C(=O)Nc3ncccc3C)CC2=O)cc1 (stereo not drawn),-0.346
6,CCOc1ccc(CN2CCN(Cc3cnn(CC)c3C)CC2CCO)cc1 (stereo not drawn),0.806
7,CC(=O)O.Cc1ccc(C2C(C(=O)c3cccs3)=C(O)C(=O)N2c2ccc(S(N)(=O)=O)cc2)cc1 (stereo not drawn),14.7
8,Cn1ncc(Cl)c1C(=O)Nc1ccc2c(c1)CCC2,19.9
9,O=C1c2ccccc2C(=O)N1c1cccc2cccnc12,17.2
10,CCOc1cc(CNCCc2c[nH]c3ccccc23)cc(Cl)c1OC.Cl,11.5
11,Cc1ccc(/C=N\NC(=O)Cn2c(C)nc3ccccc32)o1,2.3
12,Cc1cc(C)nc(NS(=O)(=O)c2ccc(NC(=O)CCCN3C(=O)c4ccccc4C3=O)cc2)n1,6.57
13,N#CC(=C1SC=CS1)c1nc(-c2ccccc2)cs1,14.9
14,O=C(Nn1cnc2ccccc2c1=O)c1ccc(F)cc1Cl,9.99
15,Cc1cc(C)n2nc(SCc3nnc(SCc4ccccc4)s3)nc2n1,0.641
16,O=C1N(Cc2cccc(Cl)c2)C[C@@H]2C[C@@H](c3cccn3-c3nccs3)N3CCC[C@@]123,-19.2
17,COc1ccc2cc3cc(C(=O)N4CCCC(C)C4)oc3nc2c1 (stereo not drawn),9.69
18,COc1cccc(-c2sc3ccc(OC)cc3c2-c2cc(F)cc(OC)c2)c1,12.4
19,CC(=O)Nc1ccc(C(=O)COC(=O)C2CCCCC2)c(F)c1,14.7
20,COc1ccc(NS(=O)(=O)c2ccc3c(c2)NC(=O)CC(=O)N3)cc1OC,19.5
21,Cc1nn(CCCC(=O)N2CCc3ccccc3C2)c(=O)c2cc3sccc3n12,-6.21
22,NC(=O)[C@@H]1CCCN1C(=O)c1ccc2nc(Cc3cccc(Cl)c3)oc2c1,9.36
23,Nc1n[nH]c(N)c1N=Nc1ccccc1F,9.67
24,CN(C)/C=C1/Nc2ccccc2C1=O,12.6
